Measured values reported in PubChem BioAssay AID504832 (National Center for Advancing Translational Sciences (NCATS), 2011).
The whole screen tested about 310,000 compounds, of which about 18,000 (5.8%) were called active. Inconclusive means that the source gave no clear call. Such entries were picked first, then a sample of the others. Calls come from the whole dose curve; as a rule, active = well fitted inhibition curve with a large enough effect; inconclusive = small, poorly fitted or top-dose-only effect, or another doubt; inactive = no such curve, though single readings can be large or run the other way. Potencies of inconclusive entries are left out as doubtful fits.

Assay: Primary qHTS for delayed death inhibitors of the malarial parasite plastid, 48 hour incubation
Conditions: P. falciparum luciferase growth in erythrocytes; series mostly up to 28.7 µM; activity change, negative = inhibition: at the top concentration
In short: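 First compound was added to culture medium, then infected red cells at 0.1% parasitemia and 2% hematocrit (final). After incubation at 37 C under 5% CO2, luciferase detection reagent was dispensed and light output recorded.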
% is set by controls: 0 for no effect and ±100 for the full control effect; potency is the fitted concentration of half-maximal effect; tags give direction and shape of the fitted curve.

Structure (SMILES) | Potency | activity change, negative = inhibition
SC(COCc1ccccc1)CN1CCN(Cc2ccc3c(c2)OCO3)CC1 (configuration not stated) | inconclusive [inhibitor, single point] | 
Cc1cccc2cc(C3CC(c4ccco4)=NN3S(=O)(=O)c3ccccc3)c(Cl)nc12 (configuration not stated) | inconclusive [inhibitor, single point] | 
Cc1cccc2c(N=Nc3ccc(S(=O)(=O)Nc4ccc(Cl)cc4)cc3[N+](=O)[O-])c(O)[nH]c12 | inconclusive [inhibitor, partial curve] | 
Cc1ccc2cccc(NC(=S)NC(=O)c3ccn(C)n3)c2n1 | inconclusive [inhibitor, single point] | 
COc1ccc(C(=O)Cn2nnc(-c3ccccc3NC(=O)C(F)(F)F)n2)cc1 | inconclusive [inhibitor, partial curve] | 
OCCC1CN(Cc2cnc(-c3ccc(Cl)cc3)nc2)CCN1C1CCCC1 (configuration not stated) | inconclusive [inhibitor, single point] | 
CCN1CCN(C2CC(=O)NC2=O)CC1 (configuration not stated) |  | inactive: 6.28%
COC(OC)c1ccc(C#N)c(SCc2ccc(C)cc2)n1 |  | inactive: -42%
O=C(NC1CCCC1)C(c1ccc(N2CCOCC2)cc1)N(Cc1ccccc1)C(=O)c1ccco1 (configuration not stated) | active: 14.7 µM | 
Fc1ccccc1Cc1noc(CN(Cc2ccccn2)CC2CCCO2)n1 (configuration not stated) |  | inactive: -10.8%
Cc1nn(Cc2cccc(C(=O)NN)c2)c(C)c1Cl | inconclusive [inhibitor, partial curve, poor fit] | 
COc1cccc(OC2OC3COC(C)(C)OC3C(O)C2NC(C)=O)c1 (configuration not stated) |  | inactive: 4.18%
CC(C)NS(=O)(=O)c1ccc(CCC(=O)Nc2ccc3c(c2)OCCO3)cc1 | active: 4.65 µM | 
CCOC(=O)N1CCC(NS(=O)(=O)c2ccc(C)c(Cl)c2)CC1 | inconclusive [inhibitor, single point] | 
Cc1ccc(S(=O)(=O)N2CCN(C(=O)Cn3c(=O)cnc4ccccc43)CC2)cc1 | inconclusive [inhibitor, single point] | 
O=C(CCNC(=O)c1ccc(Cl)cc1)NCC(c1ccco1)N1CCCCC1 (configuration not stated) | inconclusive [inhibitor, partial curve] | 
Cc1ccc(C2CC(c3ccccc3)=NN2c2ccccc2)o1 (configuration not stated) | inconclusive [inhibitor, single point] | 
CC1(C)Cc2noc(N)c2C(C)(C)N1OC(=O)c1scc2c1OCCO2 |  | inactive: -8.34%
CC(NC(=O)c1cccc(S(=O)(=O)N(C)C)c1)c1nc2ccccc2[nH]1 (configuration not stated) | inconclusive [inhibitor, single point] | 
Cc1ccc(SCCC(=O)Nc2ccccc2C(=O)NC(C)C)cc1 | inconclusive [inhibitor, single point] | 
CCOC(=O)c1sc(=NC(=O)CCSc2ccccc2)n(C)c1C |  | inactive: 30.5%
Cc1cccn2cc(CNC(=O)c3ccc(Br)o3)nc12 | inconclusive [inhibitor, full curve, poor fit] | 
Cc1ccc2[nH]c(CNC(=O)c3ccccc3F)cc2c1 |  | inactive: 49.7%

Structure (SMILES) | Potency | activity change, negative = inhibition
CC(C)(c1ccccc1)c1ccc(OCC(O)CNC2CCN(Cc3ccccc3)CC2)cc1 (configuration not stated) | active: 3.29 µM | 
CCc1ccc(NC(=O)CSc2nc(=O)n(CCCN3CCOCC3)c3c2CCC3)cc1 | inconclusive [inhibitor, single point] | 
CC(=O)Nc1cc[n+](CC(=O)c2cccc([N+](=O)[O-])c2)cc1 | inconclusive [inhibitor, partial curve, poor fit] | 
COc1ccccc1-c1cc(C(=O)Nc2cccnc2Cl)no1 |  | inactive: 9.17%
CCCCn1nc(C(=O)NCC(=O)Nc2c(C)cccc2C)c2ccccc2c1=O | inconclusive [inhibitor, single point] | 
COc1ccccc1NC1=CC(=O)CC(c2ccccc2)C1 (configuration not stated) | inconclusive [inhibitor, single point] | 
N#CC1(NC(=O)CSc2nnc(Nc3ccccc3F)s2)CCCC1 | inconclusive [inhibitor, single point] | 
CCCCCCN(C(=O)CCCCCN1C(=O)NC(c2cccc([N+](=O)[O-])c2)C(C(=O)OCc2ccccc2)=C1C)C(C(=O)NCCCC)c1ccc(OCC(=O)OC)c(C(=O)OC)c1 (configuration not stated) | inconclusive [inhibitor, full curve, poor fit] | 
COc1ccccc1N1CCN(C(=O)C2CCCN(S(=O)(=O)c3ccc4c(c3)CCCN4C(C)=O)C2)CC1 (configuration not stated) | inconclusive [inhibitor, partial curve] | 
Brc1ccccc1-n1nnc(-c2ccnc3ccccc23)n1 |  | inactive: -24.2%
Nc1nnc(COc2ccccc2)s1 |  | inactive: 29.8%
Cc1ccc2nc(-c3ccccc3)c(CN3CCSCC3)n2c1 |  | inactive: -10.6%
NC(=O)c1nsc(C(=O)N(c2ccccc2)C(C(=O)NCc2ccc(F)cc2)c2ccco2)c1N (configuration not stated) | inconclusive [inhibitor, partial curve] | 
Cc1ccc(S(=O)(=O)c2c(C)nn(C(C)(C)C)c2OC(=O)C(C)C)cc1 | inconclusive [inhibitor, single point] | 
CC(=O)Nc1ccc(NC(=O)CS(=O)(=O)Cc2ccccc2)cc1 |  | inactive: 41%
COc1cccc(NC(=O)CN(C)S(=O)(=O)/C=C/c2ccccc2)c1 | inconclusive [inhibitor, single point] | 
OC(c1cccc(Cl)c1)(c1cccc(Cl)c1)C1CN2CCC1CC2 (configuration not stated) | inconclusive [inhibitor, single point] | 
O=C(NCCCN1CCCC1=O)c1cccnc1 |  | inactive: 16.6%
CCOc1ccc(N/C(C)=C/C(=O)c2ccc3c(c2)OCCO3)cc1 |  | inactive: 112%
O=C(Nc1ccc(Cl)cc1)c1ccc(S(=O)(=O)N2CCOCC2)cc1 |  | inactive: -18.6%
O=C(CSc1nc2ncc(Cl)cc2[nH]1)NCCc1ccc(F)cc1 | inconclusive [inhibitor, single point] | 
O=S(=O)(c1ccc(Cl)cc1)N1CCN(C(=S)NCC2CCCO2)CC1 (configuration not stated) | active: 0.928 µM | 
Cc1ccc(CN2CC(C(=O)N3CCN(S(=O)(=O)c4ccc(C(C)C)cc4)CC3)CC2=O)cc1 (configuration not stated) | inconclusive [inhibitor, single point] | 

Structure (SMILES) | Potency | activity change, negative = inhibition
O=C(NC1(C(F)(F)F)C(=O)Nc2c1c(=O)[nH]c(=O)n2-c1ccc(F)cc1)c1cccnc1 (configuration not stated) | inconclusive [inhibitor, single point] | 
Cn1nc(CC(=O)Nc2ccc(N3CCN(C(=O)OC(C)(C)C)CC3)cc2)c2ccccc2c1=O | inconclusive [inhibitor, partial curve] | 
COc1cc(Cl)ccc1OCc1cc(C(=O)N(C)Cc2cccc3cnccc23)no1 | inconclusive [inhibitor, partial curve, poor fit] | 
CC(C)CCNC(=O)C1CCN(S(=O)(=O)c2ccc3c(c2)CC(C)N3C(=O)C2CC2)CC1 (configuration not stated) | inconclusive [inhibitor, partial curve] | 
CCn1c(COc2ccccc2C)nnc1SCC(=O)N1CCCCC1 | inconclusive [inhibitor, single point] | 
COc1cc(/C=C(/C(=O)c2cccs2)c2nc3ccccc3[nH]2)ccc1O | active: 2.08 µM | 
C/C(=N\N1CCCCC1c1cccnc1)c1c(O)n(C2CCCCC2)c(=S)[nH]c1=O (configuration not stated) | active: 9.28 µM | 
C#CCOCCOCCOCCNc1nc(N2CCN(C(=O)CCCCCCCCCCNC(=O)[C@H](CCCCN)n3cc(CCO)nn3)CC2)nc(N2CCN(C(=O)CCCCCCCCCCNC(=O)[C@H](CCCCN)n3cc(C[C@@H](C)CC)nn3)CC2)n1 | active: 7.38 µM | 
CC(C)CCn1c(=O)c(C(=O)Nc2ccccc2S(N)(=O)=O)c(O)c2ccccc21 |  | inactive: -3.05%
Cc1cc(=O)oc2c3c(cc(OCC(=O)NCc4ccco4)c12)OC(C)(C)CC3 | inconclusive [inhibitor, single point] | 
CCC(C)(C)NC(=O)C(c1cccn1C)N(C(=O)Cn1nnc2ccccc21)c1ccc(OC)cc1 (configuration not stated) | active: 11.7 µM | 
COc1ccc(CCn2c(C)cc3c(c2=O)C(c2ccc4c(c2)OCO4)C(C#N)=C(N)O3)cc1OC (configuration not stated) | active: 8.28 µM | 
CN(C)c1ccc(S(=O)(=O)N2CCCCC2)cc1NC(=O)C1CSC2(C)CCC(=O)N12 (configuration not stated) | inconclusive [inhibitor, single point] | 
N#Cc1ccc(C23CC4(C2)[C@H](CN(Cc2cccnc2)[C@@H]4c2ccccc2)C3c2ccccc2)cc1 (some centres not stated) | active: 4.15 µM | 
CC(C)C(=O)Nc1ccc(C(=O)CSc2nnc(C3CC3)n2C2CC2)cc1 | inconclusive [inhibitor, single point] | 
CCOc1cc(CN2CCCC(N3CCN(c4ccc(F)cc4)CC3)C2)ccc1OC (configuration not stated) | active: 1.04 µM | 
CCc1ccc(C(=O)NNc2cc(Cl)cc(Cl)c2)cc1 | inconclusive [inhibitor, single point] | 
COc1cccc(Oc2ccc(C(F)(F)F)cc2NC(=O)C2=COCCO2)c1 | inconclusive [inhibitor, partial curve, poor fit] | 
CCN(C(=O)Cn1cnc2cc([N+](=O)[O-])ccc2c1=O)C1CCS(=O)(=O)C1 (configuration not stated) | inconclusive [inhibitor, partial curve, poor fit] | 
CC(C)n1cc(/C=C2/NC(=O)NC2=O)c2ccccc21 | inconclusive [inhibitor, partial curve, poor fit] | 
COc1ccc(S(=O)(=O)N2CCOC23CCN(S(=O)(=O)c2ccc(F)cc2C)CC3)cc1 | inconclusive [inhibitor, single point] | 
